# Experimental data taken from PubChem BioAssay (Tox21).
# Inconclusive means that the source gave no clear call. Such entries were picked first, then a sample of the others. For part of these data: Potencies of inconclusive entries are left out as doubtful fits. Where a structure was tested more than once in an assay, its records may differ in their call. Calls of active or inactive are those of the source. Unless noted, calls follow the shape of the dose curve; as a rule, active = well fitted curve in the direction sought with a large enough effect in the repeat runs; inconclusive = weak or mixed curves; inactive = no such curve, though single readings can be large; an effect the other way counts as inactive or inconclusive.
# Experiments:
# [1] = qHTS RealTime-Glo MT Cell Viability Assay in HEK293 cells - 8 hour (AID 1224887); conditions: RealTime-Glo luminescence; series mostly up to 76.8 µM; also: nearly all actives have a fitted effect of over 50% in size; also: potency is read from the fitted curve at half-maximal effect
# How it was run: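 Luminescence readout at each listed time point; HEK293, 600 cells/well, RealTime-Glo MT reagent added with cells; compounds pinned (23 nL in DMSO) after 5 h at 37 C; continuous culture at 37 C.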
# [2] = target: Estrogen receptor (Homo sapiens) (UniProt P03372); experiment: qHTS assay to identify small molecule antagonists of the estrogen receptor alpha (ER-alpha) signaling pathway using the BG1 cell line in the presence of 0.1 nM 17-beta-estradiol (AID 1259244); conditions: VM7Luc4E2 (BG1) ERE-luciferase, antagonist mode, 0.1 nM E2, 22 h; series mostly up to 92.4 µM; also: nearly all actives have a fitted effect of over 50% in size
# How it was run: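 Luminescence after ONE-Glo (30 min, room temperature) measured ERE-luciferase activity in VM7Luc4E2 cells treated 22 h with compound and 0.1 nM final 17beta-estradiol as stimulator.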
# [3] = A CellTox Green Cytotoxicity Assay to monitor cytotoxicity in HEK293 cells - 16 hour (AID 1224888); conditions: CellTox Green fluorescence; series mostly up to 76.8 µM; also: nearly all actives have a fitted effect of over 35% in size; also: potency is read from the fitted curve at half-maximal effect
# How it was run: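 Read-out: fluorescence of a cell-impermeant cyanine dye staining DNA of dead cells, proportional to cytotoxicity. HEK293, 600 cells/well with reagent, compound (23 nL DMSO) added after 5 h; reads at 0, 8, 16, 24, 32, 40 h.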
# [4] = qHTS RealTime-Glo MT Cell Viability Assay in HepG2 cells - 0 hour (AID 1224889); conditions: RealTime-Glo luminescence; series mostly up to 76.8 µM; also: nearly all actives have a fitted effect of over 50% in size; also: potency is read from the fitted curve at half-maximal effect
# How it was run: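 Luminescence read-out: viable HepG2 cells reduce a prosubstrate to a NanoLuc substrate, giving a signal proportional to live cell number. Reads taken at 0, 8, 16, 24, 32 and 40 h of compound exposure at 37 C.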
# [5] = qHTS assay to identify small molecule antagonists of the androgen receptor (AR) signaling pathway using the MDA cell line in the presence of 0.5 nM R1881 - cell viability counter screen (AID 1259242); conditions: MDA-kb2 viability, CellTiter-Fluor protease fluorescence, 16 h; series mostly up to 92.4 µM; also: nearly all actives have a fitted effect of over 45% in size; also: potency is read from the fitted curve at half-maximal effect
# How it was run: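 Live-cell protease fluorescence, CellTiter-Fluor, 30 min at 37C. Cells: MDA-kb2, 3,000/well, preincubated 5 hr. Compounds plus 0.5 nM R1881 final, 16 hr, 37C, 0% CO2.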
# [6] = qHTS assay to identify small molecule antagonists of the sonic hedgehog signaling (Shh) pathway (AID 1259369; calls by dose curve; also: nearly all actives have a fitted effect of over 45% in size; also: potency is read from the fitted curve at half-maximal effect); conditions: NIH/3T3 Gli1-Luc reporter, Shh antagonist, luminescence 24 h; series mostly up to 92.4 µM
# How it was run: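 Luminescence readout: firefly Luc under Gli1 response element in 3T3Gli1-Luc cells (NIH/3T3 clone). Antagonist mode, stimulation by conditioned medium; compound exposure 24hr at 37 C, 5% CO2.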
# [7] = A CellTox Green Cytotoxicity Assay to monitor cytotoxicity in HepG2 cells - 8 hour (AID 1224890); conditions: CellTox Green fluorescence; series mostly up to 76.8 µM; also: potency is read from the fitted curve at half-maximal effect; nearly all actives have a fitted effect of over 45% in size
# How it was run: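 HepG2, 600 cells/well premixed w/ CellTox Green; 5 h settle, 37 C/5% CO2; pintool cpd add (DMSO); 37 C, 40 h; fluorescence read at 0, 8, 16, 24, 32, 40 h.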
# [8] = qHTS assay to identify small molecule phospholipidosis (PLD) inducers (AID 1259344; active = well fitted curve in the direction sought with a large enough effect; inconclusive = small, poorly fitted or top-dose-only effect, or another doubt; inactive = no such curve, though single readings can be large; an effect the other way counts as inactive or inconclusive); conditions: HepG2 phospholipidosis, LipidTOX Red imaging, 24 h; series mostly up to 38.3 µM
# How it was run: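 Read-out is LipidTOX Red fluorescence (ex 595/em 615) imaged in HepG2 cells after 24 h compound exposure at 37 C, with Hoechst nuclear counterstain (ex 352/em 461) allowing per-cell normalisation.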
# [9] = qHTS assay to identify small molecule antagonists of the sonic hedgehog signaling (Shh) pathway - cell viability counter screen (AID 1259367); conditions: NIH/3T3 Gli1-Luc viability, CellTiter-Fluor, 24 h; series mostly up to 92.4 µM; also: potency is read from the fitted curve at half-maximal effect; nearly all actives have a fitted effect of over 55% in size
# How it was run: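 Fluorescence read-out (CellTiter-Fluor, 1 hr at 37C) taken after 23 hr compound treatment of 3T3 Gli1-Luc cells stimulated with conditioned medium. Cells were seeded at 2,000 per well and pre-incubated 4 hr.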
# [10] = qHTS assay to identify small molecule HDAC inhibitors (AID 1259364); conditions: HCT-116 HDAC-Glo I/II luminescence, 2 h; series mostly up to 92.4 µM;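 also: wild-type HCT-116 cells with endogenous class I/II HDAC activity; potency is read from the fitted curve at half-maximal effect; nearly all actives have a fitted effect of over 45% in size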
# How it was run: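 HCT-116 (wild type), 1,500 cells/well, overnight; compound 2 hr 37C 5% CO2; HDAC-Glo I/II reagent 30 min RT; luminescence readout.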
# [11] = qHTS assay to identify small molecule agonists of the sonic hedgehog signaling (Shh) pathway - cell viability counter screen (AID 1259366); conditions: NIH/3T3 Gli1-Luc viability, CellTiter-Fluor, 24 h; series mostly up to 92.4 µM; also: potency is read from the fitted curve at half-maximal effect; nearly all actives have a fitted effect of over 50% in size
# How it was run: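 In quantitative high-throughput format, 3T3 Gli1-Luc cells were exposed to compounds for 24hr and multiplexed for viability using CellTiter-Fluor, incubated 1hr at 37C before the fluorescence read.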
# [12] = qHTS assay to identify small molecule antagonists of the estrogen receptor alpha (ER-alpha) signaling pathway using the BG1 cell line in the presence of 0.1 nM 17-beta-estradiol - cell viability counter screen (AID 1259241); conditions: VM7Luc4E2 (BG1) viability, CellTiter-Fluor protease, 22 h, 0.1 nM estradiol agonist added; series mostly up to 92.4 µM; also: potency is read from the fitted curve at half-maximal effect; nearly all actives have a fitted effect of over 40% in size
# How it was run: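 In this screen, hormone-deprived VM7Luc4E2 cells were seeded at 4,000 per well, dosed with compound and 0.1 nM estradiol final, and incubated 22 hr at 37C and 5% CO2; fluorogenic live-cell protease signal reported viability.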
# [13] = target: Estrogen receptor beta (Homo sapiens) (UniProt Q92731); experiment: qHTS assay to identify small molecule agonists of the estrogen receptor beta (ER-beta) signaling pathway (AID 1259377; active = well fitted activation curve with a large enough effect in the signal ratio in the repeat runs, not every such curve was filed as active; inconclusive = weak or mixed curves, or effect the other way; the % refers to the signal ratio; also: potency is read from the fitted curve at half-maximal effect); conditions: ER-beta-UAS-bla HEK293T, beta-lactamase FRET ratio, 16 h; series mostly up to 92.4 µM
# How it was run: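 Reporter cells (HEK293T, ER-beta-UAS-bla) receive compounds or DMSO after a 6 hr pre-incubation. They then incubate 16 hr at 37C/5% CO2, and fluorescence from LiveBLAzer B/G substrate is measured after 2 hours at room temperature.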
# Tags tell the direction and shape of the fitted curve or compound fluorescence and quenching.
# Chain of UniProt Q92731 (Q92731 whole entry, looked up): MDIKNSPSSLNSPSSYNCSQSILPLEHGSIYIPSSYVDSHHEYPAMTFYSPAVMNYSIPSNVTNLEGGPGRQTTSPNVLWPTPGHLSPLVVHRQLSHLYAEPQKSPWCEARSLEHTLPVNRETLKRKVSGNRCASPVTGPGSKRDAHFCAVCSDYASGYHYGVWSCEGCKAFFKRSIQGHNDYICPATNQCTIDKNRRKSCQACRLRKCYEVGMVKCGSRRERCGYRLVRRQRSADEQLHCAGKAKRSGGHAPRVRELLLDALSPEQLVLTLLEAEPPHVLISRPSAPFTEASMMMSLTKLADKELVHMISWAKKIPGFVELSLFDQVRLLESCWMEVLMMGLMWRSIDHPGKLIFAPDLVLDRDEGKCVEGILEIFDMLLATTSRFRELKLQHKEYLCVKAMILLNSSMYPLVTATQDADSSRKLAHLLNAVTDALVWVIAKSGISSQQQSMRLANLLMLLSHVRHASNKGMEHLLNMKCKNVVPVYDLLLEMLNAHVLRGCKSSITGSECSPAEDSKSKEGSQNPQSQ
# Chain of UniProt P03372 (P03372 whole entry, looked up): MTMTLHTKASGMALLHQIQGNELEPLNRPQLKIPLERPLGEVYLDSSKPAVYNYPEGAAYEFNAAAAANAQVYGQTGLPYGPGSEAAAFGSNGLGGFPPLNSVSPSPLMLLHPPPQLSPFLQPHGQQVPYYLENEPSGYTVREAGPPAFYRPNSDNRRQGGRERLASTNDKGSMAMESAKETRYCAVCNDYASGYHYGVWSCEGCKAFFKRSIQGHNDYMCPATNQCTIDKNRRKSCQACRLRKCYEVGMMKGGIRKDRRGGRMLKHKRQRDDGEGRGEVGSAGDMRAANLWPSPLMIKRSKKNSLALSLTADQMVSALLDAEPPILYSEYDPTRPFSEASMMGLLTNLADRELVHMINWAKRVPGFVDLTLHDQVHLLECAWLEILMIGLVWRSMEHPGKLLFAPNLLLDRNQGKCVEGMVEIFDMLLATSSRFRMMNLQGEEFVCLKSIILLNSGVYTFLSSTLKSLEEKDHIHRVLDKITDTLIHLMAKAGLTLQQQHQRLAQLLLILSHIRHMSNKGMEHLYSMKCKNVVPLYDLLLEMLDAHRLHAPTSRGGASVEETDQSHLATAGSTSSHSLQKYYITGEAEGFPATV
compound,measurement,setting,value
CC/C=C\CCOC(C)=O,Potency,[1],inactive
same,Potency,[2],inactive
CC(C)OC(=O)c1ccccc1C(=O)OC(C)C,Potency,[1],"inconclusive [cytotoxic, partial curve]"
same,Potency,[3],inactive
CCCCCC,Potency,[1],inactive
Nc1c(S(=O)(=O)O)cc(Br)c2c1C(=O)c1ccccc1C2=O,Potency,[1],"inconclusive [cytotoxic, single point]"
same,Potency,[4],"inconclusive [cytotoxic, single point]"
same,Potency,[5],active: 24.3 µM
O[C@@H]([C@H](O)[C@H](O)CBr)[C@H](O)CBr,Potency,[1],inactive
same,Potency,[5],inactive
same,Potency,[6],inactive
O=C(c1ccc(F)cc1)C1CCN(CCn2c(=O)[nH]c3ccccc3c2=O)CC1,Potency,[1],active: 9.52 µM
same,Potency,[7],"inconclusive [activator, single point]"
same,Potency,[8],inactive
CC(=O)Oc1ccc([N+](=O)[O-])cc1CCl,Potency,[1],"inconclusive [cytotoxic, full curve]"
same,Potency,[4],inactive
same,Potency,[5],active: 30.6 µM
same,Potency,[9],active: 27.3 µM
O=C(c1ccc(O)cc1)c1ccc(Cl)cc1,Potency,[1],"inconclusive [cytotoxic, full curve]"
same,Potency,[3],"inconclusive [activator, single point]"
same,Potency,[10],"inconclusive [inhibitor, partial curve, poor fit]"
same,Potency,[11],"inconclusive [cytotoxic, partial curve, poor fit]"
same,Potency,[6],"inconclusive [inhibitor, single point]"
O=C1c2ccccc2C(=O)c2c(O)ccc(O)c21,Potency,[1],inactive
same,Potency,[12],"inconclusive [cytotoxic, partial curve, poor fit]"
same,Potency,[6],"inconclusive [inhibitor, single point]"
same,Potency,[13],"inconclusive [fluorescent, partial curve]"
